# The source gives no read counts; variants with many changes may rest on few reads.
# B1: LINE1-mini (parent)
# chain: GGCAGAGCUCAACACAGCGUGGCAAAGUGGCUGUGGCUAGACUGCC
# Variants of: B1
# Assay: self-cleavage, relative activity (ratio to wild type); higher = more cleavage; in vitro, sequencing; the parent is a self-cleaving ribozyme
row,Variant,self-cleavage
1,G7U G17C G22U,0.01
2,G7U G21A C23U A25U G40C A41C,0.35
3,G7U C13G G21A G22U U34A,0.32
4,G7U C13A G19A,0.05
5,G7U C10G G27U U28G G36A U38C C42A,0.01
6,G7U C18A G30A A39C G44A,0.1
7,G7U G21U U28A G36A,0.03
8,G7U G21A G22U A25G,0.17
9,G7U C13G A26U U34A,0.09
10,G7U G17C A41U,0.07
11,G7U C18U G30U,0.06
12,G7U G17A G44U,0.21
13,G7U G21C A24U,0.07
14,G7U G17C G27A U32G G33U,0.07
15,G7U C23G U32A U43C,0.04
16,G7U G29U A41U C42A,0.04
17,G7U C10G G22C G30U G36A,0.02
18,G7U G21C G33A G36U A39G G44C,0.02
19,G7U C31A C45U,0.07
20,G7U C10G C42U,0
21,G7U C10U C13U C18U G22A C31U C37G,0.09

row,Variant,self-cleavage
1,G7U G30C U38A,0.04
2,G7U C13A C18A U28G A41C,0.01
3,G7U C13G C15G G27U G44C,0.09
4,G7U G19C G21A,0.03
5,G7U G21U C45U,0.04
6,G7U G21C U34A,0.04
7,G7U C37G U43A,0.02
8,G7U C10G U38A,0
9,G7U C13A C37A,0.01
10,G7U G29U U32A,0.07
11,G7U C15A U20G G27C,0.13
12,G7U G19U G22C,0.03
13,G7U C10U A16C U28G C46A,0.07
14,G7U G33C G40A,0.15
15,G7U G27U G36U,0.02
16,G7U C10U A16U,0.12
17,G7U G22A G36U A41G,0.01
18,G7U G21A U38G,0.02
19,G7U G35A G40C,0.08
20,G7U G17U G22C A24G C45A,0.03
21,G7U C23G G33A,0.05

row,Variant,self-cleavage
1,G7U G19U U32A,0.03
2,G7U C13U G19U A39U,0.04
3,G7U C23G G29C,0.03
4,G7U C23G A39C,0.04
5,G7U C18G U28C G40U,0.01
6,G7U G29U G30U C31G U43A,0.08
7,G7U C13A G17U G19A U43A,0.08
8,G7U G29C A41G,0.03
9,G7U C13G U20A U38C,0.44
10,G7U G17A G27C,0.04
11,G7U G35U C46A,0.11
12,G7U C42A C45U,0.1
13,G7U C13A G22C A24C C37G C46G,0.01
14,G7U G19C G27C,0.05
15,G7U G17C U34G,0.19
16,G7U G21C G36A A41C,0.17
17,G7U C13U C15G A24U G36U,0.09
18,G7U C15G G33U G44C,0.02
19,G7U G22A C23U,0.05
20,G7U G17A A24U C37A A41G,0.02
21,G7U C10G C13A,0.03

row,Variant,self-cleavage
1,G7U G22A A26G G29U G35A G40C,0.45
2,G7U C10G A39U,0.01
3,G7U C18G A41U C45A,0.04
4,G7U C18G A25C C31U U32C G36U,0.03
5,G7U G17U C18A,0.1
6,G7U C15A G40A,0.09
7,G7U C23U U38C C45G,0.27
8,G7U C18U C31G G33C G36A A41C,0.01
9,G7U C15A U38A,0.09
10,G7U C31U G40C,0.09
11,G7U G21C C42A,0.12
12,G7U C31A U32G U34C U38A,0.03
13,G7U G17U A24G C31G,0.02
14,G7U C13U G22C G40C,0.55
15,G7U C13U A14C C15A G19A G21C A25U G27U,0.03
16,G7U C23U U43C,0.02
17,G7U G21A G30C C46U,0.05
18,G7U G29C U34C,0.08
19,G7U C37U U38G C46A,0.02
20,G7U G22C C31A,0.04
